This note sets out measurements from paper PMC12136788.

This is one part of the list.

B1: chr8:81896215:81896216:-_ENSMUSG00000031681_ENSMUST00000066091|mus_hu|FALSE|FALSE (ssRNA)
RNA: GGGAGUUCUACAGUCCGACGAUCGAGAUUUGUUUAUUUACAGAGAAGUCUCUUUAACUUCUUAGUUUGAAGUCCAGAAGAGUAGAAAUUACCAUUCCUAGUGUUUAAAAAAGUAACCCAGUCAGCACCGGGUUGGCGGCGCGCCAACAGAGGAUUGAGCAUCA
B2: chr12:111875471:111875472:+_ENSMUSG00000018707_ENSMUST00000018851|mus_hu|FALSE|FALSE (ssRNA)
RNA: GGGAGUUCUACAGUCCGACGAUCAUCUGUCCAUUCCCUGGUGUUGGGGUCCAGGGUUCCGUAGAGGUGGUCUUUGCUGAUGGCCUUGGGGUCGAUGAUAUGGGCCACACCUUCCACACCCUCGAGUCUCUCCAAUGCCUUCAGCAACAGAGGAUUGAGCAUCA
B3: chr12:25358290:25358291:-_ENSG00000133703_ENST00000311936|hu_mus|motif|central (ssRNA)
RNA: GGGAGUUCUACAGUCCGACGAUCGUACGGUUCAUGACAAAAAUAUUACAAAUUUCAGAUCACUUCACAGCACGUACUCCGGUAAACAUUUAAAAGUUAAUUUUAAUUAAGAGUGGUCACUUUUAAAUUUAAUGUUUGAUAUGACAACAGAGGAUUGAGCAUCA
B4: chr22:46712247:46712248:+_ENSG00000075218_ENST00000454366|hu_hu|FALSE|FALSE (ssRNA)
RNA: GGGAGUUCUACAGUCCGACGAUCAGUAGGCAUAACCUUUGUCUUGGAAUUUAGACAGGAAUCUCGCCGUCUGAUACUUCUAGUCUUAUUCAAUUGAGAAGAUUCUGACCAAGCGCAACUGGAGUUCAGCCACUGGCCGCCACCCAACAGAGGAUUGAGCAUCA
B5: chr4:103717905:103717906:-_ENSG00000109332_ENST00000394803|hu_hu|motif|central (ssRNA)
RNA: GGGAGUUCUACAGUCCGACGAUCCAGUGCUAUAUUAAACAGUGUAUUGGAAGAUAGAUUAACUAAUAGCUCCAAGCCUCCGGACAAUUUAAAUGAAAAUUACAAAAUGUUUGAGACCCUAUUUUGGAAUACAAAGGGUGUUUGCAACAGAGGAUUGAGCAUCA
B6: 65695139_65695259_2033_3pUTR_ENSMUSG00000021978_ENSMUST00000022550|mouse|control|control (ssRNA)
RNA: GGGAGUUCUACAGUCCGACGAUCGCAGCAUGUCGUGGUACGGGAGCUGCACCUGCUCCCCGAGCACCACCGGCACGGCCCCCACCUCCAGGGCCUCGAAGAGCCGCGUGGCACACCCAGAUGAAAUGAGCAGGUGCGGGUCCCCAACAGAGGAUUGAGCAUCA

This assay concerns the target T1, UNK ZnF1-3 (human, UniProt Q9C0B0 31-174).
T1 sequence: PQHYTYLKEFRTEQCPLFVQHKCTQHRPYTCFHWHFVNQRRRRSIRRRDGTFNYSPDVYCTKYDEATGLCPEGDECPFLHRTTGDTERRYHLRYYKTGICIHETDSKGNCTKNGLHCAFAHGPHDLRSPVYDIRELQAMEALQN
As to the kind of experiment: nsRBNS (natural sequence RNA bind-n-seq); RBNS binding buffer (assumed for nsRBNS): 25 mM Tris pH 7.5, 150 mM KCl, 3 mM MgCl2, 0.01% Triton X-100, 500 ug/ml BSA, 20 U/ml SUPERase-In, 4 C; UNK is unkempt and MSI1 is Musashi-1; names of the RNAs are library labels; protein concentration not given here; high values mean tight binding.
As for B1, the binding signal was 0.746 enrichment R.

B2 displayed a binding signal of 0.546 enrichment R.

B3 yielded a binding signal of 1.09 enrichment R.

In turn, B4 yielded a binding signal of 1.28 enrichment R.

B5 showed a binding signal of 1.37 enrichment R.

Regarding B6, the binding signal worked out at 0.842 enrichment R.
